Test [1] addresses T1, human LAG-3 expressed on cells (human, UniProt P18627 23-525).
T1 construct: whole, on cells; Treated as one protein; the host cell is named under assay; also called LAG-3-expressing CHO cells; LAG-3-transfected CHO cells
T1 sequence (looked up): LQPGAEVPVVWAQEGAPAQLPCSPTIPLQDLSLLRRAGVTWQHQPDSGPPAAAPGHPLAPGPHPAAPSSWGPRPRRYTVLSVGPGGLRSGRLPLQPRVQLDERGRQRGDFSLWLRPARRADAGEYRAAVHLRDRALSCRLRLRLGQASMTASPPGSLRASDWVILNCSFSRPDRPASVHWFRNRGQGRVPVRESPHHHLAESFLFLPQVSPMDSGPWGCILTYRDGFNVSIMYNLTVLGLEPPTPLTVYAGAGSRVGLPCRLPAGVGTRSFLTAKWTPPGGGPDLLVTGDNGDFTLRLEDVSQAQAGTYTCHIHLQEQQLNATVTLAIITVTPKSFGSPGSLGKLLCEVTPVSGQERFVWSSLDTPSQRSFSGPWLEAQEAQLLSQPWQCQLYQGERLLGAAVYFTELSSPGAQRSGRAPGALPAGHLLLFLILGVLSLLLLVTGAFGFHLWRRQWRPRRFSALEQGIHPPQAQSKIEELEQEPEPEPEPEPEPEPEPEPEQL
Kind of test: rank of the clone among the humanized clones by the FACS binding data on LAG-3-expressing cells. Background: A flow cytometer gives signals particle by particle.

Test [2] has as its target T1, human LAG-3 expressed on cells. Kind of test: rank of the clone by the competition binding data (test mAb against FITC-labeled murine BAP050 on LAG-3-expressing CHO cells), curve position relative to the chimeric mAb in two experiments. The protocol: Incubations with the mAb mixtures having different concentration ratios of test mAb to labeled mAb was at 4° C. for 30 min. […] The experiment was performed twice.
Such a ranking system was used in FIG. 6.

B1: BAP050-hum01 (antibody, human IgG4 S228P, kappa)
heavy: EVQLVQSGAEVKKPGATVKISCKVSGFTLTNYGMNWVRQAPGQGLEWMGWINTDTGEPTYADDFKGRFVFSLDTSVSTAYLQICSLKAEDTAVYYCARNPPYYYGTNNAEAMDYWGQGTTVTVSSASTKGPSVFPLAPCSRSTSESTAALGCLVKDYFPEPVTVSWNSGALTSGVHTFPAVLQSSGLYSLSSVVTVPSSSLGTKTYTCNVDHKPSNTKVDKRV[omitted - human IgG4 Fc with S228P (EU numbers)]
light: DIQMTQSPSSLSASVGDRVTITCSSSQDISNYLNWYQQKPGKAPKLLIYYTSTLHLGVPSRFSGSGSGTDFTFTISSLEAEDAATYYCQQYYNLPWTFGQGTKVEIKRTVAAPSVFIFPPSDEQLKSGTASVVCLLNNFYPREAKVQWKVDNALQSGNSQESVTEQDSKDSTYSLSSTLTLSKADYEKHKVYACEVTHQGLSSPVTKSFNRGEC
notes: humanized IgG4(S228P)/kappa, transient CHO supernatant; also called humanized clone No. 01
With B1, the “Ranking, Binding data” value in test [1] was determined as 1. Also, in test [2], the “Ranking, Compet. data” value turned out to be 2.

B2: BAP050-hum18 (antibody, human IgG4 S228P, kappa)
heavy: EVQLVQSGAEVKKPGATVKISCKVSGFTLTNYGMNWVRQAPGQGLEWMGWINTDTGEPTYADDFKGRFVFSLDTSVSTAYLQICSLKAEDTAVYYCARNPPYYYGTNNAEAMDYWGQGTTVTVSSASTKGPSVFPLAPCSRSTSESTAALGCLVKDYFPEPVTVSWNSGALTSGVHTFPAVLQSSGLYSLSSVVTVPSSSLGTKTYTCNVDHKPSNTKVDKRV[omitted - human IgG4 Fc with S228P (EU numbers)]
light: AIQLTQSPSSLSASVGDRVTITCSSSQDISNYLNWYQQKPGQAPRLLIYYTSTLHLGVPSRFSGSGSGTDFTLTISSLQPEDFATYYCQQYYNLPWTFGQGTKVEIKRTVAAPSVFIFPPSDEQLKSGTASVVCLLNNFYPREAKVQWKVDNALQSGNSQESVTEQDSKDSTYSLSSTLTLSKADYEKHKVYACEVTHQGLSSPVTKSFNRGEC
notes: humanized IgG4(S228P)/kappa, transient CHO supernatant
On to B2, for which the “Ranking, Binding data” value in test [1] amounted to 8. For the same molecule, the “Ranking, Compet. data” value in test [2] is above 3.

Source of the values: US20180340025A1 (Novartis, published 2018).
